PubChem BioAssay AID1768 (National Center for Advancing Translational Sciences (NCATS), 2009)
The campaign covered roughly 270,000 compounds. About 620 (0.23%) were called active. This list was built around the results that the source calls inconclusive (neither active nor inactive); the mix of calls is not that of the screen. Calls follow the shape of the dose curve; as a rule, active = well fitted inhibition curve with a large enough effect in the polarisation, with a control signal flat (not every such curve was filed as active); inconclusive = small, poorly fitted or top-dose-only effect, or effect the other way, or a change in a side signal; inactive = no such curve, though single readings can be large or run the other way; the % refers to the polarisation. Where the call is inconclusive, the potency comes from a doubtful curve fit. “Side channel” marks fits to a control or component signal instead of the main read-out.
For FP activity change, negative = inhibition in this document: % of control where 0% means no effect.
Potency is read from the fitted curve at half-maximal effect; tags tell the direction and shape of the fitted curve or compound fluorescence and quenching.

What follows are compounds tested against Menin (Homo sapiens) (UniProt O00255) (assay: qHTS Assay for Inhibitors Targeting the Menin-MLL Interaction in MLL Related Leukemias: Competition With Texas Red Labeled MLL-derived Mutant Peptide). Settings: fluorescence polarization; FP activity change, negative = inhibition: at 61.6 µM (top of the series).
UniProt O00255, sequence (O00255 whole entry, looked up, the tested form may be a part): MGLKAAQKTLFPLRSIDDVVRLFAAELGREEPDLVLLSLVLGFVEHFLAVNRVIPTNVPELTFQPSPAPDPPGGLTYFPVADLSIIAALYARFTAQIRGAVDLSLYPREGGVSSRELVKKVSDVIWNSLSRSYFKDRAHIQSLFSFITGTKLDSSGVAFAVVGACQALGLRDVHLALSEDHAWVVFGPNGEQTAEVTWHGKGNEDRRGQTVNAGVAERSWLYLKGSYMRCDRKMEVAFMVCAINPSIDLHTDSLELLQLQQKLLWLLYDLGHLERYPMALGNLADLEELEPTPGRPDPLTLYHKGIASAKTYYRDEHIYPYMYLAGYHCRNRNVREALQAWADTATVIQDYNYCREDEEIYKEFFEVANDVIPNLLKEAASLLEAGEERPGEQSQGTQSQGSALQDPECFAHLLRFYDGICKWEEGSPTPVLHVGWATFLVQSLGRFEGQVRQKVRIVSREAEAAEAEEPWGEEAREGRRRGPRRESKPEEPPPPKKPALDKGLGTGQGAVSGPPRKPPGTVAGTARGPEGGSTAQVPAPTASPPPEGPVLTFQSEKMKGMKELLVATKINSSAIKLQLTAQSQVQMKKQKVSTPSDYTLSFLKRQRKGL
Text: qHTS Assay for Inhibitors Targeting the Menin-MLL Interaction in MLL Related Leukemias NIH Chemical Genomics Center [NCGC] NIH Molecular Libraries Probe Centers Network [MLPCN] MLPCN Grant: MH084875-01A1 Assay Submitter (PI): Jolanta Grembecka, Tomasz Cierpicki, University of Virginia Translocations of the MLL (Mixed Lineage Leukemia) gene are frequently found in human leukemias affecting both children and adults. Fusion of MLL to one of more than 60 genes results in generation of oncogenic proteins upregulating Hox genes, which are vital to blood cell development. Patients harboring fusion of the MLL gene suffer from aggressive leukemias and respond poorly to available therapies. All of the oncogenic fusion proteins have a preserved N-terminal fragment of MLL that has been identified to interact with menin. It has been recently discovered that association with menin is critical to the leukemogenic activity of the MLL fusion oncoproteins. Selective targeting of the menin-MLL interaction could provide an attractive therapeutic approach to develop novel drugs for MLL-related leukemias. Small molecules blocking the menin-MLL interaction should reverse the oncogenic potential of MLL fusion proteins. We have developed and optimized a fluorescence polarization-based assay for the identification of Menin-MLL inhibitors. The assay was run employing two different MLL-derived peptides. The present assay uses a 12 amino acid peptide labeled with fluorescein at its N-terminus. This peptide consists of the menin high affinity binding motif from MLL and is potently bound by menin. Another peptide with a mutated sequence, labeled with Texas Red, was used in parallel as a less stringent screen for inhibitors.
The Menin protein, the MLL-wild type (w.t.) derived peptide (N-terminal 12 amino acids), the MLL-derived peptide labeled with Texas Red and the MLL-w.t. peptide labeled with Fluorescein were kindly supplied by laboratory of Dr. Jolanta Grembecka, University of Virginia. All protein and peptide solutions were stored in single use aliquots at -80C. The Eu3+ Cyrptate-conjugated mouse monoclonal antibody anti-6 Histidine (Eu3+-AB) and the Streptavidin-XL665 conjugate (XL665) were purchased from Cisbio International (Bedford, MA). All antibody and XL665 conjugate solution stocks were stored in single use aliquots at -20C. The Buffer components for all assays were purchased from Sigma-Aldrich (St. Louis, MO) and Invitrogen (Carlsbad, CA). FP Assay Reagents: 1. FP reaction buffer: 50 mM Tris-HCl pH 7.5, 50 mM NaCl, 1mM DTT. Before use, 0.05% BSA is added. 2. Menin protein, MLL-w.t. labeled with fluorescein, MLL-mutant peptide labeled with texas red. Stored in singe use aliquots at -80C. 3. MLL-w.t. unlabeled peptide as positive control: 10 uM final in FP buffer. FP Assay Procedure: 1. Prepare Menin at 200 nM, MLL-w.t.-fluorescein at 25 nM, and MLL-mutant-texas red at 50 nM mixture in FP buffer. 2. Prepare Menin at 200 nM, MLL-w.t.-fluorescein at 25 nM, MLL-mutant-texas red at 50 nM, and 10 uM MLL-w.t. unlabeled mixture in FP buffer. 3. Prepare MLL-w.t.-fluorescein at 25 nM and MLL-mutant-texas red at 50 nM mixture in FP buffer. 3. Dispense 4 ul per well of reagent in step 1 in columns 2, 4 - 48 in a black 1536 well plate, dispense 4 ul per well of reagents from steps 2 and 3 in columns 1 and 3 respectively. Incubate plate at ambient for 15 minutes. 4. Transfer 23 nl per well of compound to plate and incubate at ambient for 1 hr. 5. Read fluorescence polarization for each label using the PerkinElmer Envision. Envision protocol for fluorescein: FITC FP Dual Enh Mirror, Excitation filter 480, Emission filter (1) P-pol 535, Emission filter (2) S-pol 535 Envision protocol for texas red: FP Dual Enh Mirror, Excitation filter 555, Emission filter (1) P-pol 632, Emission filter (2) S-pol 632
`COC(=O)c1ccccc1NC(=O)CSc1[nH]c(=O)cc(C)c1C#N` was tested, and the Potency was inconclusive: 10 µM [quencher, side channel, partial curve].
With `O=c1cc(CSc2nc3cc(Cl)ccc3o2)nc2sccn12` the Potency was inconclusive: 35.5 µM [fluorescent, side channel, single point].
With `Cc1cc(C)n(-c2nc3ccccc3s2)n1` the Potency was inconclusive: 100 µM [inhibitor, partial curve, poor fit].
In the case of `COc1cc(OC)cc(C(=O)OCC(=O)Nc2ccc(N3CCCCC3)cc2)c1`, the “FP activity change, negative = inhibition” value is reported as inactive: 2.06%.
With `COc1cccc2cc(CC(=O)c3ccccc3)c(=O)oc12` the Potency was inconclusive: 3.55 µM [inhibitor, full curve, poor fit].
With `CC(=O)OCON[N+]([O-])=NC(C)C` the Potency was inconclusive: 8.91 µM [quencher, side channel, full curve].
`O=C(COc1ccc([N+](=O)[O-])cc1)Nc1ccc(S(=O)(=O)N2CCOCC2)cc1` was tested, and the Potency was inconclusive: 15.8 µM [quencher, side channel, single point].
In the case of `O=c1/c(=C\c2ccc(O)cc2)sc2n1C(c1ccccc1)C(c1ccccc1)=NN=2` (stereo not drawn), the Potency is reported as inconclusive: 5.62 µM [quencher, side channel, partial curve].
In the case of `Cc1ccc(CNC(=O)CSc2nnc3c(n2)[nH]c2ccccc23)cc1`, the Potency is reported as inconclusive: 39.8 µM [fluorescent, side channel, single point].
With `CC(=O)c1sc(N/N=C\c2ccccc2O)nc1C` the Potency was inconclusive: 25.1 µM [quencher, side channel, partial curve].
In the case of `O=C(c1cc(-c2cccc(Cl)c2)on1)N1CCN(c2ccc(F)cc2)CC1`, the Potency is reported as inconclusive: 39.8 µM [fluorescent, single point].
For `O=C(Nc1ccc(N2CCOCC2)cc1)Nc1ccc(Cl)c(Cl)c1`, the Potency was inconclusive: 15.8 µM [quencher, side channel, partial curve].
In the case of `CCCOc1ccc(C2C(=O)N(C3CCCCC3)CC(=O)N2C2CC2)cc1OC` (stereo not drawn), the Potency is reported as inconclusive: 3.16 µM [inhibitor, full curve].
`Cc1cc(NC(=O)c2ccc(Cn3nc(C)c(Br)c3C)o2)no1` was tested, and the “FP activity change, negative = inhibition” value was inactive: 4.14%.
In the case of `CCOC(=O)C1CCCN(C(=O)Cn2sc3nc(C)cc(C)c3c2=O)C1` (stereo not drawn), the “FP activity change, negative = inhibition” value is reported as inactive: -2.62%.
For `O=C(N/N=C/c1ccccn1)c1[nH]c2ccc([N+](=O)[O-])cc2c1-c1ccccc1`, the Potency was inconclusive: 15.8 µM [quencher, side channel, partial curve].
With `COc1cc(OC)cc(C(=O)OCC(=O)Nc2sccc2C(N)=O)c1` the Potency was inconclusive: 28.2 µM [quencher, side channel, partial curve].
With `CCc1ccc(NC(=O)C(C)OC(=O)c2ccc(NS(=O)(=O)c3ccc(C)c([N+](=O)[O-])c3)cc2)cc1` (stereo not drawn) the Potency was inconclusive: 10 µM [quencher, side channel, partial curve].
In the case of `CCCCCNC(=O)c1ccc2c(c1)ncn2-c1ccc(OC)cc1`, the Potency is reported as inconclusive: 14.1 µM [fluorescent, side channel, partial curve].
For `COc1ccc(CCN(C(=S)Nc2ccccc2)C2CC(=O)N(c3ccccc3)C2=O)cc1` (stereo not drawn), the Potency was inconclusive: 2.82 µM [quencher, side channel, full curve].
In the case of `O=C(CN1C(=O)COc2ccc(Cl)cc21)N1CCOCC1`, the “FP activity change, negative = inhibition” value is reported as inactive: 1.36%.
For `Cc1ccc(NC(=S)NC(=O)/C=C/c2ccco2)c(O)c1`, the Potency was inconclusive: 20 µM [quencher, side channel, single point].
For `Cc1c(C(=O)N/N=C/c2ccc(N(C)C)cc2)[nH]c2ccc(Cl)cc12`, the Potency was inconclusive: 11.2 µM [quencher, side channel, partial curve].
For `CC1=C(C(=O)OCC2CCCO2)C(c2ccncc2)C2=C(CCCC2=O)N1` (stereo not drawn), the “FP activity change, negative = inhibition” value was inactive: 11.4%.
For `COc1ccc2c(c1)N(C)/C(=C/c1cccc[n+]1C)S2`, the “FP activity change, negative = inhibition” value was inactive: -9.93%.
For `O=C(CCN1C(=O)C2C3C=CC(C3)C2C1=O)N1CCN(c2ccccc2Cl)CC1` (stereo not drawn), the Potency was inconclusive: 0.708 µM [inhibitor, full curve, poor fit].
With `Cc1noc(C)c1-c1nccc(NCc2cccs2)n1` the Potency was inconclusive: 0.631 µM [inhibitor, full curve, poor fit].
In the case of `O=C1C(=Cc2cccn2-c2ccc(O)cc2)C(=O)c2ccccc21`, the Potency is reported as inconclusive: 25.1 µM [inhibitor, single point].
For `O=C(NCCc1c[nH]c2ccccc12)c1cc([N+](=O)[O-])cc([N+](=O)[O-])c1`, the Potency was inconclusive: 31.6 µM [quencher, side channel, single point].
In the case of `O=C1Nc2ccc(Br)cc2C12NNc1ccccc1O2` (stereo not drawn), the Potency is reported as inconclusive: 7.08 µM [quencher, partial curve].
In the case of `O=c1[nH]n2c(=O)c3c([nH]c2c1N=Nc1cccc(Cl)c1)CCCC3`, the Potency is reported as inconclusive: 31.6 µM [quencher, partial curve].
With `Cc1cc(C)n(-c2nc3c(c(=O)[nH]c(=O)n3C)n2CC(C)C)n1` the Potency was inconclusive: 0.708 µM [inhibitor, full curve, poor fit].
With `Cc1ccc(NC(=S)Nc2ccc(OC(F)F)c(Cl)c2)cc1Cl` the Potency was inconclusive: 25.1 µM [quencher, side channel, partial curve].
`CCOC(=O)C1=C[C@]2(CC)CCCN3CCc4c(n1c1ccccc41)[C@@H]32` was tested, and the Potency was inconclusive: 20 µM [fluorescent, side channel, partial curve].
With `CC(C)CC(c1nnnn1Cc1cccs1)N1CCN(c2nc3ccccc3s2)CC1` (stereo not drawn) the Potency was inconclusive: 22.4 µM [inhibitor, partial curve, poor fit].
In the case of `Nc1nc(-c2ccccc2)[nH]c(=O)c1N`, the Potency is reported as inconclusive: 28.2 µM [quencher, side channel, single point].
`O=C(NNC(=O)c1cc2c(s1)CCCC2)c1ccccc1` was tested, and the “FP activity change, negative = inhibition” value was inactive: 2.97%.
`COc1ccc(NC(=O)COC(=O)CCCc2c[nH]c3ccccc23)cc1` was tested, and the Potency was inconclusive: 39.8 µM [quencher, single point].
